Numbering of substitutions follows the chain as printed; changes in the protein carry UniProt numbers. The list shows a part of the results.

The source of these data is article PMC9911399, “Two distinct binding modes provide the RNA-binding protein RbFox with extraordinary sequence specificity”.

The labels stand for the following.
B1: AUCCCUU (DNA:RNA)
RNA: GGGAGACCGGAAUUCAGAUUGUCCAUCCCUUUUAAAUCCCGUCGUAGCCACCA
DNA 1: CAATCTGAATTCCGGTCTCCC
DNA 2: TGGTGGCTACGACGGGATT
B2: CGGCUAA (DNA:RNA)
RNA: B1 RNA with A25C, U26G, C27G, C29U, U30A, U31A
DNA 1: CAATCTGAATTCCGGTCTCCC
DNA 2: TGGTGGCTACGACGGGATT
B3: CAAUUCG (DNA:RNA)
RNA: GGGAGACCGGAAUUCAGAUUGUCCCAAUUCGUUAAAUCCCGUCGUAGCCACCA
DNA 1: CAATCTGAATTCCGGTCTCCC
DNA 2: TGGTGGCTACGACGGGATT
B4: AAAUCGA (DNA:RNA)
RNA: B3 RNA with C25A, U29C, C30G, G31A
DNA 1: CAATCTGAATTCCGGTCTCCC
DNA 2: TGGTGGCTACGACGGGATT
B5: GUGUGGC (DNA:RNA)
RNA: B1 RNA with A25G, C27G, C28U, C29G, U30G, U31C
DNA 1: CAATCTGAATTCCGGTCTCCC
DNA 2: TGGTGGCTACGACGGGATT
B6: AGAGGUA (DNA:RNA)
RNA: B1 RNA with U26G, C27A, C28G, C29G, U31A
DNA 1: CAATCTGAATTCCGGTCTCCC
DNA 2: TGGTGGCTACGACGGGATT
B7: AAAGGCA (DNA:RNA)
RNA: B3 RNA with C25A, U28G, U29G, G31A
DNA 1: CAATCTGAATTCCGGTCTCCC
DNA 2: TGGTGGCTACGACGGGATT
B8: GUACAGC (DNA:RNA)
RNA: B1 RNA with A25G, C27A, C29A, U30G, U31C
DNA 1: CAATCTGAATTCCGGTCTCCC
DNA 2: TGGTGGCTACGACGGGATT
B9: UCAGGUA (DNA:RNA)
RNA: B1 RNA with A25U, U26C, C27A, C28G, C29G, U31A
DNA 1: CAATCTGAATTCCGGTCTCCC
DNA 2: TGGTGGCTACGACGGGATT
B10: GGGGGAA (DNA:RNA)
RNA: GGGAGACCGGAAUUCAGAUUGUCCGGGGGAAUUAAAUCCCGUCGUAGCCACCA
DNA 1: CAATCTGAATTCCGGTCTCCC
DNA 2: TGGTGGCTACGACGGGATT
B11: UAGCUUC (DNA:RNA)
RNA: B1 RNA with A25U, U26A, C27G, C29U, U31C
DNA 1: CAATCTGAATTCCGGTCTCCC
DNA 2: TGGTGGCTACGACGGGATT
B12: UUUACAC (DNA:RNA)
RNA: B1 RNA with A25U, C27U, C28A, U30A, U31C
DNA 1: CAATCTGAATTCCGGTCTCCC
DNA 2: TGGTGGCTACGACGGGATT
B13: GACCGUU (DNA:RNA)
RNA: B1 RNA with A25G, U26A, C29G
DNA 1: CAATCTGAATTCCGGTCTCCC
DNA 2: TGGTGGCTACGACGGGATT
B14: GCUUUCC (DNA:RNA)
RNA: B3 RNA with C25G, A26C, A27U, G31C
DNA 1: CAATCTGAATTCCGGTCTCCC
DNA 2: TGGTGGCTACGACGGGATT
B15: CGGAAAG (DNA:RNA)
RNA: B10 RNA with G25C, G28A, G29A, A31G
DNA 1: CAATCTGAATTCCGGTCTCCC
DNA 2: TGGTGGCTACGACGGGATT
B16: UUGUAUU (DNA:RNA)
RNA: B1 RNA with A25U, C27G, C28U, C29A
DNA 1: CAATCTGAATTCCGGTCTCCC
DNA 2: TGGTGGCTACGACGGGATT
B17: UUGAAAA (DNA:RNA)
RNA: B10 RNA with G25U, G26U, G28A, G29A
DNA 1: CAATCTGAATTCCGGTCTCCC
DNA 2: TGGTGGCTACGACGGGATT
B18: AGCAAUC (DNA:RNA)
RNA: B1 RNA with U26G, C28A, C29A, U31C
DNA 1: CAATCTGAATTCCGGTCTCCC
DNA 2: TGGTGGCTACGACGGGATT
B19: UAUUAUC (DNA:RNA)
RNA: B3 RNA with C25U, A27U, U29A, C30U, G31C
DNA 1: CAATCTGAATTCCGGTCTCCC
DNA 2: TGGTGGCTACGACGGGATT
B20: UCGGAGC (DNA:RNA)
RNA: B10 RNA with G25U, G26C, G29A, A30G, A31C
DNA 1: CAATCTGAATTCCGGTCTCCC
DNA 2: TGGTGGCTACGACGGGATT
B21: ACACUCU (DNA:RNA)
RNA: B1 RNA with U26C, C27A, C29U, U30C
DNA 1: CAATCTGAATTCCGGTCTCCC
DNA 2: TGGTGGCTACGACGGGATT
B22: UCACUAG (DNA:RNA)
RNA: B3 RNA with C25U, A26C, U28C, C30A
DNA 1: CAATCTGAATTCCGGTCTCCC
DNA 2: TGGTGGCTACGACGGGATT
B23: GGGAUAU (DNA:RNA)
RNA: B10 RNA with G28A, G29U, A31U
DNA 1: CAATCTGAATTCCGGTCTCCC
DNA 2: TGGTGGCTACGACGGGATT
B24: UGCCCCC (DNA:RNA)
RNA: B1 RNA with A25U, U26G, U30C, U31C
DNA 1: CAATCTGAATTCCGGTCTCCC
DNA 2: TGGTGGCTACGACGGGATT
B25: AGAUGGG (DNA:RNA)
RNA: B3 RNA with C25A, A26G, U29G, C30G
DNA 1: CAATCTGAATTCCGGTCTCCC
DNA 2: TGGTGGCTACGACGGGATT
B26: CGACAUU (DNA:RNA)
RNA: B1 RNA with A25C, U26G, C27A, C29A
DNA 1: CAATCTGAATTCCGGTCTCCC
DNA 2: TGGTGGCTACGACGGGATT
B27: UGCCAUG (DNA:RNA)
RNA: B1 RNA with A25U, U26G, C29A, U31G
DNA 1: CAATCTGAATTCCGGTCTCCC
DNA 2: TGGTGGCTACGACGGGATT
B28: AUACGUG (DNA:RNA)
RNA: B1 RNA with C27A, C29G, U31G
DNA 1: CAATCTGAATTCCGGTCTCCC
DNA 2: TGGTGGCTACGACGGGATT
B29: GAAAGGG (DNA:RNA)
RNA: B3 RNA with C25G, U28A, U29G, C30G
DNA 1: CAATCTGAATTCCGGTCTCCC
DNA 2: TGGTGGCTACGACGGGATT
B30: GCAUCCU (DNA:RNA)
RNA: B3 RNA with C25G, A26C, U29C, G31U
DNA 1: CAATCTGAATTCCGGTCTCCC
DNA 2: TGGTGGCTACGACGGGATT
B31: GAGCAAG (DNA:RNA)
RNA: B10 RNA with G26A, G28C, G29A, A31G
DNA 1: CAATCTGAATTCCGGTCTCCC
DNA 2: TGGTGGCTACGACGGGATT

The target in the assay is T1, RBFOX1 RRM (Homo sapiens, UniProt Q9NWB1 109-208).
T1 sequence: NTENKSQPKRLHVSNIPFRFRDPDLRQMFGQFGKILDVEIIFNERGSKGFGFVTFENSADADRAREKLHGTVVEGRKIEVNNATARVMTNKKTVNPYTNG
Description: EMSA; HiTS-Eq, 1 nM pool, 10 min; buffer printed only for the single-RNA assays: 10 mM Tris pH 7.5, 150 mM NaCl, 3.4 mM EDTA, 0.001% NP-40, 30 C. Conditions: tags: His6 N-terminal (pET28a); label: 5' 32P. The gist of the method:
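Purified RbFox RRM (wild type or mutant) was equilibrated for 10 min in 50 µL with 1 nM of a 5′-radiolabelled pool of RNA with 7 randomized nucleotides, its flanks annealed to DNA oligonucleotides, across increasing protein concentrations. Free RNA was separated by 8% native PAGE, excised, reverse-transcribed, PCR-barcoded and sequenced on an Illumina HiSeq 2500. Relative association constants came from read-count changes of each variant against the control reaction, normalised to the cognate motif.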
A general note: A gel shift assay detects complexes by their altered migration in electrophoresis.
For B1, the binding signal was 0.00521 KA relative to UGCAUGU. With B2, the binding signal was 0.00822 KA relative to UGCAUGU.

As for B3, the binding signal was 0.00943 KA relative to UGCAUGU. On to B4, for which the binding signal was 0.00235 KA relative to UGCAUGU.

With B5, the binding signal is 0.00821 KA relative to UGCAUGU. For the molecule B6, the binding signal is 0.00817 KA relative to UGCAUGU.

Regarding B7, the binding signal is 0.00733 KA relative to UGCAUGU. As to B8, the binding signal is 0.00791 KA relative to UGCAUGU. For the molecule B9, the binding signal is 0.0111 KA relative to UGCAUGU. Consider B10, for which the binding signal is 0.022 KA relative to UGCAUGU. As for B11, the binding signal was 0.012 KA relative to UGCAUGU. For B12 the value was 0.000916 KA relative to UGCAUGU; for B13, 0.0123 KA relative to UGCAUGU. On to B14, for which the binding signal is 0.0202 KA relative to UGCAUGU. For B15 the value was 0.0218 KA relative to UGCAUGU; for B16, 0.00921 KA relative to UGCAUGU; for B17, 0.00876 KA relative to UGCAUGU. With B18 the figure was 0.00921 KA relative to UGCAUGU; with B19, 0.00535 KA relative to UGCAUGU; with B20, 0.00541 KA relative to UGCAUGU.

Take B21: the binding signal is 0.000285 KA relative to UGCAUGU. As to B22, the binding signal is 0.0053 KA relative to UGCAUGU. For B23 the value was 0.0263 KA relative to UGCAUGU. B24: the binding signal was 0.00443 KA relative to UGCAUGU. B25: the binding signal was 0.00903 KA relative to UGCAUGU. With B26, the binding signal was 0.0026 KA relative to UGCAUGU.

B27: the binding signal is 0.0208 KA relative to UGCAUGU. For the molecule B28, the binding signal is 0.0068 KA relative to UGCAUGU. As for B29, the binding signal was 0.00294 KA relative to UGCAUGU. Turning to B30, the binding signal was 0.0211 KA relative to UGCAUGU.

With B31, the binding signal is 0.0175 KA relative to UGCAUGU.
